# According to the supplement of paper PMC8728848:
# Some of the results follow.
# B1: GSL-I-B4 (Griffonia simplicifolia) (protein)
# chain: NFWSDVEDSIIFQGDANTTAGTLQLCKTNQYGTPLQWSAGRALYSDPVQLWDNKTESVASFYTEFTFFLKITGNGPADGLAFFLAPPDSDVKDAGEYLGLFNKSTATQPSKNQVVAVEFDTWTNPNFPEPSYRHIGINVNSIVSVATKRWEDSDIFSGKIATARISYDGSAEILTVVLSYPDGSDYILSHSVDMRQNLPESVRVGISASTGNNQFLTVYILSWRFSSNLQSTSVKAAMEPEITRTVV
# Assays:
# Assay in all cases: glycan array binding signal (z-score within array); higher = stronger binding
# Conditions in all cases: glycan notation: IUPAC condensed, linker removed
# [1] = target: Fuc(a1-2)Gal(b1-4)[Fuc(a1-3)]GlcNAc
# Procedure, shortened: (§1)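 The Consortium for Functional Glycomics database supplied 3228 glycan arrays, of which those lacking an available protein sequence were dropped. The binding signal, a within-array Z-score, was averaged across arrays of the same protein sequence and across linkers. Negative scores can be read as non-binding.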
# [2] = target: Fuc(a1-2)Gal(b1-4)[Fuc(a1-3)]GlcNAc(b1-2)Man(a1-3)[Fuc(a1-2)Gal(b1-4)[Fuc(a1-3)]GlcNAc(b1-2)Man(a1-6)]Man(b1-4)GlcNAc(b1-4)[Fuc(a1-6)]GlcNAc
# Procedure, shortened: as §1
# [3] = target: Fuc(a1-2)Gal(b1-4)[Fuc(a1-3)]GlcNAc(b1-2)[Fuc(a1-2)Gal(b1-4)[Fuc(a1-3)]GlcNAc(b1-4)]Man(a1-3)[Fuc(a1-2)Gal(b1-4)[Fuc(a1-3)]GlcNAc(b1-2)Man(a1-6)]Man(b1-4)GlcNAc(b1-4)GlcNAc
# Procedure, shortened: as §1
# [4] = target: Fuc(a1-2)Gal(b1-4)[Fuc(a1-3)]GlcNAc(b1-3)Gal(b1-4)[Fuc(a1-3)]GlcNAc
# Procedure, shortened: as §1
# [5] = target: Fuc(a1-2)Gal(b1-4)[Fuc(a1-3)]GlcNAc(b1-3)Gal(b1-4)[Fuc(a1-3)]GlcNAc(b1-3)Gal(b1-4)[Fuc(a1-3)]GlcNAc
# Procedure, shortened: as §1
# [6] = target: Fuc(a1-2)Gal(b1-4)[Fuc(a1-3)]GlcNAc(b1-3)GalNAc
# Procedure, shortened: as §1
# [7] = target: Fuc(a1-2)Gal(b1-4)[Fuc(a1-3)]GlcNAc(b1-3)[Neu5Ac(a2-6)Gal(b1-4)GlcNAc(b1-6)]Gal(b1-4)Glc
# Procedure, shortened: as §1
# [8] = target: Fuc(a1-2)Gal3S(b1-4)GlcNAc
# Procedure, shortened: as §1
# [9] = target: Fuc(a1-2)Gal6S(b1-3)GlcNAc
# Procedure, shortened: as §1
# [10] = target: Fuc(a1-2)Gal6S(b1-3)GlcNAc6S
# Procedure, shortened: as §1
# [11] = target: Fuc(a1-2)Gal6S(b1-4)Glc
# Procedure, shortened: as §1
# [12] = target: Fuc(a1-2)Gal6S(b1-4)Glc6S
# Procedure, shortened: as §1
# [13] = target: Fuc(a1-2)[Gal(a1-3)]Gal
# Procedure, shortened: as §1
# [14] = target: Fuc(a1-2)[Gal(a1-3)]Gal(b1-3)GalNAc
# Procedure, shortened: as §1
# [15] = target: Fuc(a1-2)[Gal(a1-3)]Gal(b1-3)GalNAc(b1-3)Gal(a1-4)Gal(b1-4)Glc
# Procedure, shortened: as §1
# [16] = target: Fuc(a1-2)[Gal(a1-3)]Gal(b1-3)GlcNAc
# Procedure, shortened: as §1
# [17] = target: Fuc(a1-2)[Gal(a1-3)]Gal(b1-3)GlcNAc(b1-2)Man(a1-3)[Fuc(a1-2)[Gal(a1-3)]Gal(b1-3)GlcNAc(b1-2)Man(a1-6)]Man(b1-4)GlcNAc(b1-4)GlcNAc
# Procedure, shortened: as §1
# [18] = target: Fuc(a1-2)[Gal(a1-3)]Gal(b1-3)GlcNAc(b1-2)Man(a1-3)[Fuc(a1-2)[Gal(a1-3)]Gal(b1-3)GlcNAc(b1-2)Man(a1-6)]Man(b1-4)GlcNAc(b1-4)[Fuc(a1-6)]GlcNAc
# Procedure, shortened: as §1
# [19] = target: Fuc(a1-2)[Gal(a1-3)]Gal(b1-3)GlcNAc(b1-3)GalNAc
# Procedure, shortened: as §1
# [20] = target: Fuc(a1-2)[Gal(a1-3)]Gal(b1-3)GlcNAc(b1-6)GalNAc
# Procedure, shortened: as §1
# [21] = target: Fuc(a1-2)[Gal(a1-3)]Gal(b1-4)Glc
# Procedure, shortened: as §1
# [22] = target: Fuc(a1-2)[Gal(a1-3)]Gal(b1-4)GlcNAc
# Procedure, shortened: as §1
# [23] = target: Fuc(a1-2)[Gal(a1-3)]Gal(b1-4)GlcNAc(b1-2)Man
# Procedure, shortened: as §1
# [24] = target: Fuc(a1-2)[Gal(a1-3)]Gal(b1-4)GlcNAc(b1-2)Man(a1-3)[Fuc(a1-2)[Gal(a1-3)]Gal(b1-4)GlcNAc(b1-2)Man(a1-6)]Man(b1-4)GlcNAc(b1-4)GlcNAc
# Procedure, shortened: as §1
# [25] = target: Fuc(a1-2)[Gal(a1-3)]Gal(b1-4)GlcNAc(b1-2)Man(a1-3)[Fuc(a1-2)[Gal(a1-3)]Gal(b1-4)GlcNAc(b1-2)Man(a1-6)]Man(b1-4)GlcNAc(b1-4)[Fuc(a1-6)]GlcNAc
# Procedure, shortened: as §1
# [26] = target: Fuc(a1-2)[Gal(a1-3)]Gal(b1-4)GlcNAc(b1-3)GalNAc
# Procedure, shortened: as §1
# [27] = target: Fuc(a1-2)[Gal(a1-3)]Gal(b1-4)GlcNAc(b1-6)GalNAc
# Procedure, shortened: as §1
# [28] = target: Fuc(a1-2)[Gal(a1-3)]Gal(b1-4)[Fuc(a1-3)]Glc
# Procedure, shortened: as §1
# [29] = target: Fuc(a1-2)[Gal(a1-3)]Gal(b1-4)[Fuc(a1-3)]GlcNAc
# Procedure, shortened: as §1
# [30] = target: Fuc(a1-2)[Gal(a1-3)]Gal(b1-4)[Fuc(a1-3)]GlcNAc(b1-3)GalNAc
# Procedure, shortened: as §1
# [31] = target: Fuc(a1-2)[Gal(a1-4)]Gal(b1-4)GlcNAc
# Procedure, shortened: as §1
# [32] = target: Fuc(a1-2)[GalNAc(a1-3)]Gal
# Procedure, shortened: as §1
# [33] = target: Fuc(a1-2)[GalNAc(a1-3)]Gal(b1-3)GalNAc(a1-3)[Fuc(a1-2)]Gal(b1-4)GlcNAc
# Procedure, shortened: as §1
# [34] = target: Fuc(a1-2)[GalNAc(a1-3)]Gal(b1-3)GalNAc(b1-3)Gal(a1-4)Gal(b1-4)Glc
# Procedure, shortened: as §1
# [35] = target: Fuc(a1-2)[GalNAc(a1-3)]Gal(b1-3)GlcNAc
# Procedure, shortened: as §1
# [36] = target: Fuc(a1-2)[GalNAc(a1-3)]Gal(b1-3)GlcNAc(b1-2)Man(a1-3)[Fuc(a1-2)[GalNAc(a1-3)]Gal(b1-3)GlcNAc(b1-2)Man(a1-6)]Man(b1-4)GlcNAc(b1-4)GlcNAc
# Procedure, shortened: as §1
# [37] = target: Fuc(a1-2)[GalNAc(a1-3)]Gal(b1-3)GlcNAc(b1-2)Man(a1-3)[Fuc(a1-2)[GalNAc(a1-3)]Gal(b1-3)GlcNAc(b1-2)Man(a1-6)]Man(b1-4)GlcNAc(b1-4)[Fuc(a1-6)]GlcNAc
# Procedure, shortened: as §1
# [38] = target: Fuc(a1-2)[GalNAc(a1-3)]Gal(b1-3)GlcNAc(b1-3)GalNAc
# Procedure, shortened: as §1
binder,measurement,setting,value
B1,glycan array binding signal (z-score),[1],-0.131
same,glycan array binding signal (z-score),[2],-0.202
same,glycan array binding signal (z-score),[3],-0.15
same,glycan array binding signal (z-score),[4],-0.133
same,glycan array binding signal (z-score),[5],-0.084
same,glycan array binding signal (z-score),[6],-0.11
same,glycan array binding signal (z-score),[7],-0.18
same,glycan array binding signal (z-score),[8],-0.17
same,glycan array binding signal (z-score),[9],-0.128
same,glycan array binding signal (z-score),[10],-0.239
same,glycan array binding signal (z-score),[11],-0.165
same,glycan array binding signal (z-score),[12],-0.114
same,glycan array binding signal (z-score),[13],1.08
same,glycan array binding signal (z-score),[14],0.853
same,glycan array binding signal (z-score),[15],0.506
same,glycan array binding signal (z-score),[16],0.776
same,glycan array binding signal (z-score),[17],1.74
same,glycan array binding signal (z-score),[18],0.077
same,glycan array binding signal (z-score),[19],0.11
same,glycan array binding signal (z-score),[20],-0.033
same,glycan array binding signal (z-score),[21],0.213
same,glycan array binding signal (z-score),[22],1.62
same,glycan array binding signal (z-score),[23],0.119
same,glycan array binding signal (z-score),[24],3.69
same,glycan array binding signal (z-score),[25],0.628
same,glycan array binding signal (z-score),[26],-0.022
same,glycan array binding signal (z-score),[27],-0.198
same,glycan array binding signal (z-score),[28],0.489
same,glycan array binding signal (z-score),[29],1.68
same,glycan array binding signal (z-score),[30],-0.039
same,glycan array binding signal (z-score),[31],0.231
same,glycan array binding signal (z-score),[32],-0.184
same,glycan array binding signal (z-score),[33],-0.157
same,glycan array binding signal (z-score),[34],-0.202
same,glycan array binding signal (z-score),[35],-0.157
same,glycan array binding signal (z-score),[36],-0.171
same,glycan array binding signal (z-score),[37],-0.204
same,glycan array binding signal (z-score),[38],-0.125
